In all, about 33,000 sequences were measured (“E-score (-0.5 to 0.5)”: median about -0.013, highest 2% from about 0.3 on). Some of the results follow.

The target in the test is T1, Msn1 (UniProt P22148).
T1 sequence: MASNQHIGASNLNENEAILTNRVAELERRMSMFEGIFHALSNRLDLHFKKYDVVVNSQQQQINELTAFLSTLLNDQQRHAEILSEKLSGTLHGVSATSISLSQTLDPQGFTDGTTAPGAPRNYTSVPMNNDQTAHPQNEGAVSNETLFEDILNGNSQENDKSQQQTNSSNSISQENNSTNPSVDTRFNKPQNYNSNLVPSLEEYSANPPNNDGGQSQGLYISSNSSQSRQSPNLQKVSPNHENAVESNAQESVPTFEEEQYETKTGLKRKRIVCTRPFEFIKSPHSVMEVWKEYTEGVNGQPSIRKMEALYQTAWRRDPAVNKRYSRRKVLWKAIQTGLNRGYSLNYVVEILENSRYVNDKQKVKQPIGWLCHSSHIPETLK
Nature of the test: PBM E-score (8-mer binding enrichment) (E-score (-0.5 to 0.5)); higher = stronger / more preferred TF binding; most listed sequences are background and not binding sites. Conditions: protein concentration: 200 nM; construct: GST-full length. In short, it runs like this: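 For each ungapped eight-base word taken together with its reverse complement, the Universal PBM Analysis Suite assigned an E-score. Binding data came from GST-tagged yeast transcription factors, applied at about 100-200 nM, on universal all-10-mer Agilent arrays made double-stranded by primer extension. Fluorescent anti-GST marked bound protein, and scans were normalised with masliner.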
For the sequence AAATGAGT, the “PBM E-score” value came to 0.0295.
Take ACGAAAGT: the “PBM E-score” value is 0.055.
The value for GCAAGCGC was -0.146; that for AAAGATGC was -0.254.
In the case of ATACCGAT, the “PBM E-score” value worked out at 0.0201.
The value for TAAGAAGA was 0.0965; that for AATTATAA was 0.225; that for TACCTTGA was 0.0341.
For the sequence CGACTCCC, the “PBM E-score” value was -0.0565.
ACCATACT: the “PBM E-score” value stood at 0.0758.
For GCGAACCA, the “PBM E-score” value was -0.0367.
For the sequence CCACGCAG, the “PBM E-score” value is -0.102.
Consider ATGAAAGG, for which the “PBM E-score” value was -0.179.
Take AAGTGCGC: the “PBM E-score” value was -0.108.
The value for GTATAAAC was 0.163.
On to GAGGCGCA, for which the “PBM E-score” value is -0.173.
Regarding CATAAGAA, the “PBM E-score” value came to 0.156.
As for GGAGCCTA, the “PBM E-score” value was -0.0816.
Then AGTATGGG, with 0.0148.
For AAATAGGC, the “PBM E-score” value came out at 0.0174.
With ATGTCAAG, the “PBM E-score” value was found to be 0.217.
For the sequence CTAATAGC, the “PBM E-score” value is -0.255.
In the case of CCCAAATA, the “PBM E-score” value was found to be 0.0428.
With TAAATGGA, the “PBM E-score” value came to 0.0732.
With GAAGACCC, the “PBM E-score” value is -0.293.
Consider ACCGTTGC, for which the “PBM E-score” value was -0.12.
For CGAGCTAC, the “PBM E-score” value is -0.106.
Then AGGTTGCG, with -0.132.
The value for TACGGTCA was -0.0772.
The value for ATGCGATC was 0.0267; that for GATCATAA was 0.0946; that for AAACATAC was -0.0227.
As to AGTCCTAC, the “PBM E-score” value was 0.165.
The value for CATTAATC was 0.077; that for GGAGGTCA was -0.197.
Turning to AGGACCAT, the “PBM E-score” value is 0.0759.
Take TCGCGGCA: the “PBM E-score” value is -0.0647.
The value for CACGACTG was -0.132.
As for CCTACGGC, the “PBM E-score” value is -0.23.
Then CCCGGTCG, with -0.185; and ATGGCTCC, with -0.144.
AAACGTTC: the “PBM E-score” value was -0.00364.
As to AGCTGAGA, the “PBM E-score” value is -0.0294.
With AGCTAGAA, the “PBM E-score” value turned out to be 0.0088.
As for CAGCAACG, the “PBM E-score” value stood at 0.0974.
The value for GGACGACC was -0.163; that for TAAAGTTA was 0.154; that for GAGGCTCC was -0.164.
On to CCGCGACC, for which the “PBM E-score” value is -0.0476.
With AAATTGCC, the “PBM E-score” value is 0.0743.
With AGCCACGC, the “PBM E-score” value was -0.143.
Take AAGTTCCA: the “PBM E-score” value was -0.0544.
Consider ATAGTTTG, for which the “PBM E-score” value was 0.274.
Then CAAGGGCC, with -0.185.
CCCGCAGA: the “PBM E-score” value is -0.068.
Take AATCCTAG: the “PBM E-score” value is -0.0237.
Take GCCTTGAA: the “PBM E-score” value was -0.278.
On to ATGCGAGG, for which the “PBM E-score” value was -0.134.
The value for GCGGTTTA was 0.0245; that for ATGCGATA was 0.0216; that for AAAACCCC was -0.155.
In the case of TCTACACA, the “PBM E-score” value is -0.0126.
For the sequence CAAATGAA, the “PBM E-score” value amounted to 0.0666.
Then TCCCCCCA, with -0.341; and ACTCCGAA, with 0.00789.
For AAAAGGTA, the “PBM E-score” value came to 0.0382.
Then CATGTAAA, with 0.109; and ACTATTAG, with 0.16.
Consider AATACCAT, for which the “PBM E-score” value worked out at 0.172.
Consider GGAAGACA, for which the “PBM E-score” value came to 0.251.
For TAGTCATA, the “PBM E-score” value came to 0.0578.
ATAAAGAA: the “PBM E-score” value came to 0.143.
With AGGAGTGG, the “PBM E-score” value is -0.233.
Then CACTAGGC, with -0.0968.
The value for CACCAAAA was 0.0614; that for TAAGGGCA was 0.0897.
Take CAATCATA: the “PBM E-score” value was found to be 0.0579.
Turning to ACCAGGGC, the “PBM E-score” value is -0.261.
ATCGGTAG: the “PBM E-score” value turned out to be 0.117.
As to ATTCAAGC, the “PBM E-score” value amounted to 0.0438.
Consider AACACTGC, for which the “PBM E-score” value is -0.00331.
The value for ACTACGGA was 0.0284.
With TCTGGTCA, the “PBM E-score” value amounted to 0.0592.
Regarding TACCCGGA, the “PBM E-score” value amounted to 0.21.
Regarding CCGAGTCA, the “PBM E-score” value is -0.0166.
The value for GATAAAAC was 0.175.

The values above are taken from the supplement of paper PMC3334620.
